{"source": "the antibiotic and cytotoxicity screens of Wong et al. (2023)", "note": "This is one part of the list.", "data": [{"system": "HepG2", "assay": "cytotoxicity call (relative viability < 0.9)", "settings": "10 µM", "values": [{"smiles": "CO[C@H]1CN(C)C(=O)c2cc(NS(=O)(=O)c3cn(C)cn3)ccc2OC[C@@H](C)N(Cc2cccc(F)c2)C[C@H]1C", "cytotoxicity call": "inactive"}, {"smiles": "COc1ccc(NC(=O)N(C)C[C@H]2Oc3c(NC(=O)Nc4cccc5ccccc45)cccc3C(=O)N([C@@H](C)CO)C[C@@H]2C)cc1", "cytotoxicity call": "inactive"}, {"smiles": "CC(=O)c1ccc[nH]1", "cytotoxicity call": "inactive"}, {"smiles": "C[C@@H]1CCCCO[C@H](CN(C)C(=O)c2ccccc2)[C@@H](C)CN([C@@H](C)CO)C(=O)c2cc(NC(=O)Nc3ccccc3)ccc2O1", "cytotoxicity call": "inactive"}, {"smiles": "Cc1ccc(S(=O)(=O)Nc2ccc3c(c2)C(=O)N([C@H](C)CO)C[C@@H](C)[C@@H](CN(C)S(=O)(=O)c2cccs2)O3)cc1", "cytotoxicity call": "inactive"}, {"smiles": "C[C@H](CO)N1C[C@H](C)[C@@H](CN(C)CC2CCCCC2)OCCCC[C@H](C)Oc2ccc(NC(=O)Nc3cccc4ccccc34)cc2C1=O", "cytotoxicity call": "active"}, {"smiles": "Cc1cc(C(=O)Nc2cccc3c2O[C@@H](CN(C)C(=O)Nc2ccc4c(c2)OCO4)[C@@H](C)CN([C@H](C)CO)C3=O)n(C)n1", "cytotoxicity call": "inactive"}, {"smiles": "C[C@@H]1CN([C@H](C)CO)C(=O)Cc2cc(NC(=O)Cc3cn(C)c4ccccc34)ccc2O[C@H]1CN(C)S(C)(=O)=O", "cytotoxicity call": "inactive"}, {"smiles": "C[C@H]1CC=CC[C@@H](c2cccc(Cl)c2)NC(=O)[C@H](Cc2ccccc2)N(C)C(=O)c2ccccc2O1", "cytotoxicity call": "inactive"}, {"smiles": "C[C@H](CO)N1C[C@H](C)[C@H](CN(C)Cc2ccc(C(=O)Nc3ccccc3N)cc2)Oc2ccc(NS(C)(=O)=O)cc2CC1=O", "cytotoxicity call": "inactive"}, {"smiles": "C[C@H](CO)N1C[C@H](C)[C@H](CN(C)Cc2ccc(Oc3ccccc3)cc2)Oc2ccc(NC(=O)Cc3cn(C)c4ccccc34)cc2C1=O", "cytotoxicity call": "active"}]}, {"system": "S. aureus RN4220", "assay": "growth inhibition call (relative growth <= 0.2)", "settings": "50 µM", "values": [{"smiles": "Cn1c(=O)c(=O)n(C)c2cc(S(=O)(=O)N3CCOCC3)ccc21", "growth inhibition call": "inactive"}, {"smiles": "CCS(=O)(=O)Nc1ccc2c(c1)C(=O)N(C)C[C@@H](OC)[C@H](C)CN(Cc1ccccn1)[C@@H](C)CO2", "growth inhibition call": "inactive"}, {"smiles": "COc1ccc(CCNC(=O)[C@@]2(Sc3ccc(C)cc3)CC(=O)N(C3CCCCC3)[C@@H]2c2ccc(CO)cc2I)cc1", "growth inhibition call": "inactive"}, {"smiles": "C[C@@H]1CCCCO[C@@H](CN(C)C(=O)Cc2ccccc2)[C@@H](C)CN([C@@H](C)CO)C(=O)c2cc(NC(=O)Nc3ccc(F)cc3)ccc2O1", "growth inhibition call": "inactive"}, {"smiles": "COCC#Cc1ccc2c(c1)O[C@@H](CN(C)C(=O)c1ccccc1)[C@@H](C)CN([C@H](C)CO)S2(=O)=O", "growth inhibition call": "inactive"}, {"smiles": "C[C@H]1CN([C@@H](C)CO)C(=O)c2cc(NS(=O)(=O)c3ccccc3)ccc2O[C@@H]1CN(C)CC1CC1", "growth inhibition call": "inactive"}, {"smiles": "CN(c1ccc(N)cc1[N+](=O)[O-])S(C)(=O)=O", "growth inhibition call": "inactive"}, {"smiles": "C[C@H]1CN([C@@H](C)CO)C(=O)c2cccc(NC(=O)C3CCOCC3)c2O[C@H]1CN(C)C(=O)NC1CCCCC1", "growth inhibition call": "inactive"}, {"smiles": "C[C@@H]1CN([C@@H](C)CO)S(=O)(=O)c2ccc(-c3ccncc3)cc2O[C@@H]1CN(C)S(=O)(=O)c1ccccc1F", "growth inhibition call": "inactive"}, {"smiles": "Cc1ccc(S(=O)(=O)Nc2ccc3c(c2)CC(=O)N([C@H](C)CO)C[C@@H](C)[C@H](CN(C)C(=O)Nc2ccc(C(F)(F)F)cc2)O3)cc1", "growth inhibition call": "inactive"}, {"smiles": "Cc1ccc(S(=O)(=O)Nc2ccc3c(c2)C(=O)N([C@@H](C)CO)C[C@@H](C)[C@@H](CN(C)C(=O)NC2CCCCC2)OCCCC[C@@H](C)O3)cc1", "growth inhibition call": "inactive"}, {"smiles": "C[C@H]1CN([C@@H](C)CO)C(=O)c2cccc(NC(=O)Nc3ccccc3)c2O[C@H]1CN(C)C(=O)Nc1ccc(C(F)(F)F)cc1", "growth inhibition call": "inactive"}, {"smiles": "C[C@@H]1CCCCO[C@@H](CN(C)C(=O)CCC(F)(F)F)[C@@H](C)CN([C@@H](C)CO)C(=O)c2cc(NS(=O)(=O)c3cccs3)ccc2O1", "growth inhibition call": "inactive"}, {"smiles": "CO[C@@H](CN(C)C(=O)C1CCOCC1)[C@@H](C)CN(C(=O)Nc1ccc(C(F)(F)F)cc1)[C@H](C)CO", "growth inhibition call": "active"}, {"smiles": "C[C@@H]1CN([C@H](C)CO)C(=O)c2cccc(NC(=O)C3CCOCC3)c2O[C@H]1CN(C)Cc1ccc(Oc2ccccc2)cc1", "growth inhibition call": "inactive"}, {"smiles": "C[C@@H]1CN([C@@H](C)CO)C(=O)CCCn2nncc2CO[C@H]1CN(C)C(=O)Nc1ccc2c(c1)OCO2", "growth inhibition call": "inactive"}, {"smiles": "C[C@@H]1CN([C@H](C)CO)C(=O)c2cc(NC(=O)NC3CCCCC3)ccc2O[C@H]1CN(C)S(=O)(=O)c1cn(C)cn1", "growth inhibition call": "inactive"}, {"smiles": "COc1ccc(NC(=O)N(C)C[C@@H]2OCCCC[C@@H](C)Oc3ccc(NS(=O)(=O)c4ccc(C)cc4)cc3C(=O)N([C@@H](C)CO)C[C@@H]2C)cc1", "growth inhibition call": "inactive"}]}]}
